Not every detail of the peptide structures is certain; ends, links or a residue may be inferred. For part of these data: For at least one compound, name, drawing or mass did not settle the structure. Values belong to the molecule of their own block, whether it stands above or below them. Peptide text beside a SMILES is read from it.
Columns and labels:
[1] = biological target: T1, purified HLA DRB1*0405 (Homo sapiens, UniProt P01903+P01911, A100R/A169T/D86S/F76Y/I96L/K127E/L162R/M171V/N62H/P40V/Q125Y/R42H/S133A/S149N/S66Y/V115G/V209L/W38E); test: HLA-DR radioligand binding inhibition assay, DRB1*0405; details: read-out: IC50 nM purified HLA DRB1 *0405
T1 construct: purified from EBV transformed homozygous cell lines or single MHC allele transfected 721.221, C1R, or fibroblast lines; made in house
Protocol: (§1) Instead, wells of an opaque white 96-well Optiplate (Packard) are coated with 3 μg (100 μl@ 30 μg/ml) of HLA-specific antibody (Ab) that “capture” complexes of radiolabeled MHC and unlabeled peptide transferred from the molecular binding assay plate in 100 μl of 0.05% NP40/PBS. After a 3-hour incubation period, the supernatant is decanted and scintillation fluid (Microscint 20) added. Captured complexes are then measured on a microplate scintillation and luminescence counter (TopCount NXTTM; Packard).
(§2) HLA-DR purification. Fifteen distinct HLA-DR molecules were used in quantitative assays to measure the binding of peptides to solubilized HLA-DR molecules. […] Briefly, columns of inactivated Sepharose CL4B and Protein A Sepharose were used as pre-columns. HLA-DR molecules were captured by passage of lysates over LB3.1 monoclonal antibody (anti-HLA-DRA) columns. […]
(§3) Briefly, 1-10 nM of radiolabeled peptide was co-incubated for 2 days at either room temperature or 37° C. with 1 μM to 1 nM purified HLA-DR molecules in the presence of a cocktail of protease inhibitors. […] After incubation, the percentage of HLA-DR-bound radioactivity is determined by capturing HLA-DR/peptide complexes on Optiplates (Packard Instruments, Meriden, Conn.) coated with the LB3.1 antibody and determining bound counts per minute using the TopCount microscintillation counter (Packard Instruments).

[2] = biological target: T2, purified HLA DRB1*1501 (Homo sapiens, UniProt P01903+P01911); test: HLA-DR radioligand binding inhibition assay, DRB1*1501
T2 construct: purified from EBV transformed homozygous cell lines or single MHC allele transfected 721.221, C1R, or fibroblast lines; made in house
Protocol: as §1
(§4) HLA-DR purification. Fifteen distinct HLA-DR molecules were used in quantitative assays to measure the binding of peptides to solubilized HLA-DR molecules. […] Briefly, columns of inactivated Sepharose CL4B and Protein A Sepharose were used as pre-columns. HLA-DR molecules were captured by passage of lysates over LB3.1 monoclonal antibody (anti-HLA-DRA) columns. Antibody columns were washed with 10 mM Tris-HCL, pH8.0 with 1% (v/v) NP-40, followed by PBS containing 0.4% (w/v) n-octylglucoside.
as §3, with “inhibitors. Assays were performed at various pH conditions, ranging from pH 4 to pH 7.” for “inhibitors.”

[3] = biological target: T3, purified HLA DRB1*0101 (Homo sapiens, UniProt P01903+P01911, A100R/D57E/F55L/F60I/F76Y/I96L/L162R/M171V/P40L/Q125E/R42F/V115G/Y59C); test: HLA-DR radioligand binding inhibition assay, DRB1*0101; details: read-out: IC50 nM purified HLA DRB1 *0101
T3 construct: purified from EBV transformed homozygous cell lines or single MHC allele transfected 721.221, C1R, or fibroblast lines; made in house
Protocol: as §1, §4
as §3, with “inhibitors. Assays were performed at various pH conditions, ranging from pH 4 to pH 7.” for “inhibitors.”

[4] = biological target: T4, purified HLA DRB1*0404 (Homo sapiens, UniProt P01903+P01911, A100R/A169T/F76Y/I96L/K127E/L162R/M171V/N62H/P40V/Q125Y/R42H/S133A/S149N/S66Y/V209L/W38E); test: HLA-DR radioligand binding inhibition assay, DRB1*0404; details: read-out: IC50 nM purified HLA DRB1 *0404
T4 construct: purified from EBV transformed homozygous cell lines or single MHC allele transfected 721.221, C1R, or fibroblast lines; made in house
Protocol: as §1, §4
as §3, with “inhibitors. Assays were performed at various pH conditions, ranging from pH 4 to pH 7.” for “inhibitors.”

[5] = biological target: T5, purified HLA DRB1*1302 (Homo sapiens, UniProt P01903+P01911, A100E/A169T/K41T/L162R/M171V/P40S/Q125H/Q178H/Q39Y/Q99D/R42S/S66N/T262R/V115G/W38E/Y61H); test: HLA-DR radioligand binding inhibition assay, DRB1*1302
T5 construct: purified from EBV transformed homozygous cell lines or single MHC allele transfected 721.221, C1R, or fibroblast lines; made in house
Protocol: as §1, §4
as §3, with “inhibitors. Assays were performed at various pH conditions, ranging from pH 4 to pH 7.” for “inhibitors.”

[6] = biological target: T6, purified HLA DRB4*0101 (Homo sapiens, UniProt P01903+P13762, G164S); test: HLA-DR radioligand binding inhibition assay, DRB4*0101; details: read-out: IC50 nM purified HLA DRB4 *0101
T6 construct: purified from EBV transformed homozygous cell lines or single MHC allele transfected 721.221, C1R, or fibroblast lines; made in house
Protocol: as §1, §4
as §3, with “inhibitors. Assays were performed at various pH conditions, ranging from pH 4 to pH 7.” for “inhibitors.”

[7] = biological target: T7, purified HLA DRB1*0301 (Homo sapiens, UniProt P01903+P01911, A100K/A102G/A103R/A169T/F55Y/I96L/K41T/L162R/M171V/P40S/Q125H/Q178H/Q39Y/R42S/S66N/T106N/T262R/W38E/Y61H); test: HLA-DR radioligand binding inhibition assay, DRB1*0301; details: read-out: IC50 nM purified HLA DRB1 *0301
T7 construct: purified from EBV transformed homozygous cell lines or single MHC allele transfected 721.221, C1R, or fibroblast lines; made in house
Protocol: as §1, §4
as §3, with “inhibitors. Assays were performed at various pH conditions, ranging from pH 4 to pH 7.” for “inhibitors.”

[8] = biological target: T8, purified HLA DRB1*0401 (Homo sapiens, UniProt P01903+P01911, A100K/A169T/F76Y/I96L/K127E/L162R/M171V/N62H/P40V/Q125Y/R42H/S133A/S149N/S66Y/V115G/V209L/W38E); test: HLA-DR radioligand binding inhibition assay, DRB1*0401; details: read-out: IC50 nM purified HLA DRB1 *0401
T8 construct: purified from EBV transformed homozygous cell lines or single MHC allele transfected 721.221, C1R, or fibroblast lines; made in house
Protocol: as §1, §2, §3

[9] = biological target: T9, purified HLA DRB1*0701 (Homo sapiens, UniProt P01903+P01911, A100R/A102G/A103Q/D57E/D86V/E43K/F76Y/K127E/L162R/M171V/P40G/Q125H/Q99D/R33Q/R42Y/R54Q/S133A/S66F/T210M/V115G/Y107V/Y59L/Y89S); test: HLA-DR radioligand binding inhibition assay, DRB1*0701; details: read-out: IC50 nM purified HLA DRB1 *0701
T9 construct: purified from EBV transformed homozygous cell lines or single MHC allele transfected 721.221, C1R, or fibroblast lines; made in house
Protocol: as §1, §4
as §3, with “inhibitors. Assays were performed at various pH conditions, ranging from pH 4 to pH 7.” for “inhibitors.”

SMILES: CC[C@H](C)[C@H](N)C(=O)N[C@@H](CS)C(=O)N[C@H](C(=O)N[C@H](C(=O)N[C@@H](CC(=O)O)C(=O)N[C@H](C(=O)N[C@@H](Cc1ccc(O)cc1)C(=O)N[C@@H](CCSC)C(=O)N[C@H](C(=O)N[C@@H](CCSC)C(=O)N[C@H](C(=O)N[C@@H](CCCCN)C(=O)N[C@@H](CS)C(=O)N[C@@H](Cc1c[nH]c2ccccc12)C(=O)N[C@@H](CCSC)C(=O)O)C(C)C)[C@@H](C)CC)C(C)C)[C@@H](C)CC)[C@@H](C)O [Peptide 1622.04]
IC50 [1]: 955 nM
IC50 [2]: 2650 nM

SMILES: CC[C@H](C)[C@H](NC(=O)[C@H](CO)NC(=O)[C@H](CC(N)=O)NC(=O)[C@@H](N)CC(=O)O)C(=O)N[C@@H](CCCNC(=N)N)C(=O)N1CCC[C@H]1C(=O)N[C@@H](CCC(=O)O)C(=O)N[C@@H](CCC(=O)O)C(=O)N[C@@H](CC(C)C)C(=O)N[C@@H](CC(C)C)C(=O)N[C@@H](CCC(N)=O)C(=O)N[C@@H](CCSC)C(=O)N[C@@H](CCC(=O)O)C(=O)N[C@@H](CC(C)C)C(=O)N[C@@H](CC(C)C)C(=O)O [Peptide 9019.0009]
IC50 [3]: 4550 nM
IC50 [4]: 2800 nM
IC50 [1]: 16500 nM
IC50 [5]: 3490 nM
IC50 [2]: 4760 nM
IC50 [6]: 87 nM

SMILES: CC(C)C[C@H](NC(=O)CNC(=O)[C@H](CC(C)C)NC(=O)[C@H](Cc1c[nH]cn1)NC(=O)[C@H](Cc1c[nH]cn1)NC(=O)[C@@H](N)CCCCN)C(=O)N[C@@H](CCC(=O)O)C(=O)N[C@@H](CCC(=O)O)C(=O)N1CCC[C@H]1C(=O)N[C@@H](CCCCN)C(=O)N[C@@H](CCCCN)C(=O)N[C@@H](CC(C)C)C(=O)N[C@@H](CCCNC(=N)N)C(=O)N1CCC[C@H]1C(=O)N1CCC[C@H]1C(=O)O [Peptide 9019.0020]
IC50 [7]: 4020 nM

Results, then the molecule that gave them:

IC50 [3]: 2040 nM
IC50 [8]: 5390 nM
IC50 [9]: 8000 nM
IC50 [5]: 704 nM
SMILES: CC(C)C[C@H](NC(=O)CNC(=O)[C@H](Cc1c[nH]c2ccccc12)NC(=O)[C@H](CCCNC(=N)N)NC(=O)[C@H](CS)NC(=O)[C@H](CC(C)C)NC(=O)[C@H](C)NC(=O)[C@H](C)NC(=O)[C@@H](N)CC(C)C)C(=O)N[C@@H](CC(C)C)C(=O)N[C@@H](CC(C)C)C(=O)N[C@@H](C)C(=O)N[C@@H](CC(C)C)C(=O)N[C@@H](CC(C)C)C(=O)N1CCC[C@H]1C(=O)O [Peptide 9019.0024]

IC50 [4]: 3400 nM
IC50 [9]: 2100 nM
SMILES: CC[C@H](C)[C@H](NC(=O)[C@H](CCC(N)=O)NC(=O)[C@H](Cc1c[nH]cn1)NC(=O)[C@H](CS)NC(=O)[C@H](C)NC(=O)[C@H](CC(C)C)NC(=O)CNC(=O)[C@H](CCC(=O)O)NC(=O)CNC(=O)[C@@H](NC(=O)[C@H](CS)NC(=O)[C@H](CCC(=O)O)NC(=O)[C@@H](N)CC(=O)O)C(C)C)C(=O)N[C@@H](CS)C(=O)N[C@@H](C)C(=O)O [Peptide 9019.0060] (H-DECVGEGLACHQICA-OH)

— patent publication US20140377340A1, “HLA-DR BINDING PEPTIDES AND THEIR USES” (priority 2007, published 2014)
